# Assay results: the supplement of paper PMC10037445
# Whole data set: some 2,900 compounds, median “NF-kB SEAP reporter activity, fold change vs agonist alone” near 0.99, cut for the highest 2% near 2.6. The list shows a part of the results.
# Key:
# [1] = tested on: RAW-Dual; test: NF-kB SEAP reporter activity, fold change vs agonist alone; higher = enhanced NF-kB activity
# Summary of the method: (§1)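 Reporter activity is given as fold change relative to agonist-alone wells. To measure it, 50 nL of library stock was pin-tooled onto RAW-Dual macrophages (50,000 cells/well, DMEM, 384-well plates), a PRR agonist followed 1 h later, and cells stayed at 37 °C, 5% CO2. Twenty hours on, supernatant was assayed for IRF (QuantiLuc luminescence) and NF-κB (QuantiBlue, 620 nm absorbance), and wells under 70% of agonist-control IncuCyte confluency in both mask sets were marked cytotoxic.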
# [2] = tested on: RAW-Dual; test: NF-kB SEAP reporter activity, fold change vs agonist alone; cytotoxicity flag (confluency mask): not cytotoxic; higher = enhanced NF-kB activity
# Summary of the method: as §1
# [3] = tested on: RAW-Dual; test: NF-kB SEAP reporter activity, fold change vs agonist alone; cytotoxicity flag (confluency mask): cytotoxic (confluency <70% of control); higher = enhanced NF-kB activity
# Summary of the method: as §1
# [4] = agonist: ODN 1826 (TLR9) 0.5 ug/mL
# [5] = agonist: Pam2CSK4 (TLR2/6) 0.1 ug/mL
# [6] = agonist: Pam3CSK4 (TLR2/1) 0.1 ug/mL
# [7] = library stock concentration (final ~1000-fold dilution): 10 mM, cytotoxicity flag (confluency mask): not cytotoxic, agonist: Imiquimod (TLR7) […]
# [8] = library stock concentration (final ~1000-fold dilution): 10 mM, cytotoxicity flag (confluency mask): not cytotoxic, agonist: MPLA (TLR4) […]
# [9] = library stock concentration (final ~1000-fold dilution): 10 mM, cytotoxicity flag (confluency mask): cytotoxic (confluency <70% of control), agonist: Imiquimod (TLR7) […]
# [10] = library stock concentration (final ~1000-fold dilution): 10 mM, cytotoxicity flag (confluency mask): cytotoxic (confluency <70% of control), agonist: MPLA (TLR4) […]
smiles,measurement,setting,value
C[N+](C)(C)NCCC(=O)O,NF-kB SEAP reporter activity,"[1]; library stock concentration (final ~1000-fold dilution): 10 mM water, cytotoxicity flag (confluency mask): not cytotoxic, agonist: Imiquimod (TLR7) […]",0.956
same,NF-kB SEAP reporter activity,"[1]; library stock concentration (final ~1000-fold dilution): 10 mM water, cytotoxicity flag (confluency mask): not cytotoxic, agonist: MPLA (TLR4) […]",1.02
C[N+](C)(C)NCCC(=O)O (library stock concentration (final ~1000-fold dilution): 10 mM water),NF-kB SEAP reporter activity,[2]; agonist: LPS (TLR4) 0.1 ug/mL,1.04
same,NF-kB SEAP reporter activity,[2]; [4],1.12
same,NF-kB SEAP reporter activity,[2]; [5],1.23
same,NF-kB SEAP reporter activity,[2]; [6],1.31
CCOc1ccccc1OC(c1ccccc1)C1CNCCO1.CS(=O)(=O)O (centres undefined) (library stock concentration (final ~1000-fold dilution): 10 mM),NF-kB SEAP reporter activity,[2]; agonist: LPS (TLR4) 0.1 ug/mL,1.26
same,NF-kB SEAP reporter activity,[2]; [4],0.686
same,NF-kB SEAP reporter activity,[2]; [5],1.01
same,NF-kB SEAP reporter activity,[2]; [6],0.987
CCOc1ccccc1OC(c1ccccc1)C1CNCCO1.CS(=O)(=O)O (centres undefined),NF-kB SEAP reporter activity,[1]; [7],1.33
same,NF-kB SEAP reporter activity,[1]; [8],1.14
CCOC(=O)C1=CC(OC(CC)CC)C(NC(C)=O)C(N)C1 (centres undefined),NF-kB SEAP reporter activity,"[1]; library stock concentration (final ~1000-fold dilution): 2 mM, cytotoxicity flag (confluency mask): not cytotoxic, agonist: Imiquimod (TLR7) […]",0.848
same,NF-kB SEAP reporter activity,"[1]; library stock concentration (final ~1000-fold dilution): 2 mM, cytotoxicity flag (confluency mask): not cytotoxic, agonist: MPLA (TLR4) […]",1.03
CCOC(=O)C1=CC(OC(CC)CC)C(NC(C)=O)C(N)C1 (centres undefined) (library stock concentration (final ~1000-fold dilution): 2 mM),NF-kB SEAP reporter activity,[2]; agonist: LPS (TLR4) 0.1 ug/mL,1.17
same,NF-kB SEAP reporter activity,[2]; [4],1.08
same,NF-kB SEAP reporter activity,[2]; [5],1.16
same,NF-kB SEAP reporter activity,[2]; [6],1.11
CC(c1ncncc1F)C(O)(Cn1cncn1)c1ccc(F)cc1F (centres undefined),NF-kB SEAP reporter activity,[1]; [7],1.03
same,NF-kB SEAP reporter activity,[1]; [8],0.848
CC(c1ncncc1F)C(O)(Cn1cncn1)c1ccc(F)cc1F (centres undefined) (library stock concentration (final ~1000-fold dilution): 10 mM),NF-kB SEAP reporter activity,[2]; agonist: LPS (TLR4) 0.1 ug/mL,1.19
same,NF-kB SEAP reporter activity,[2]; [4],1.07
same,NF-kB SEAP reporter activity,[2]; [5],1
same,NF-kB SEAP reporter activity,[2]; [6],1.11
O=C(O)c1ccc2c(c1)nc(Nc1cccc(Cl)c1)c1ccncc12,NF-kB SEAP reporter activity,[1]; [7],0.836
same,NF-kB SEAP reporter activity,[1]; [8],1.24
O=C(O)c1ccc2c(c1)nc(Nc1cccc(Cl)c1)c1ccncc12 (library stock concentration (final ~1000-fold dilution): 10 mM),NF-kB SEAP reporter activity,[2]; agonist: LPS (TLR4) 0.1 ug/mL,1.48
same,NF-kB SEAP reporter activity,[2]; [4],0.767
same,NF-kB SEAP reporter activity,[2]; [5],0.523
same,NF-kB SEAP reporter activity,[2]; [6],0.707
O=C1CC(=O)c2c(Cl)c(Cl)c(Cl)c(Cl)c21,NF-kB SEAP reporter activity,[1]; [7],0.836
same,NF-kB SEAP reporter activity,[1]; [8],1.17
O=C1CC(=O)c2c(Cl)c(Cl)c(Cl)c(Cl)c21 (library stock concentration (final ~1000-fold dilution): 10 mM),NF-kB SEAP reporter activity,[2]; agonist: LPS (TLR4) 0.1 ug/mL,0.891
same,NF-kB SEAP reporter activity,[2]; [4],0.801
same,NF-kB SEAP reporter activity,[2]; [5],0.923
same,NF-kB SEAP reporter activity,[2]; [6],0.823
COc1ccc(S(=O)(=O)Nc2cccnc2Nc2ccc(O)cc2)cc1 (library stock concentration (final ~1000-fold dilution): 10 mM),NF-kB SEAP reporter activity,[2]; agonist: LPS (TLR4) 0.1 ug/mL,4.93
same,NF-kB SEAP reporter activity,[2]; [4],3.17
same,NF-kB SEAP reporter activity,[2]; [5],1.86
same,NF-kB SEAP reporter activity,[2]; [6],2.22
COc1ccc(S(=O)(=O)Nc2cccnc2Nc2ccc(O)cc2)cc1,NF-kB SEAP reporter activity,[1]; [7],2.48
same,NF-kB SEAP reporter activity,[1]; [8],1.92
O=C1NCCc2[nH]c(-c3ccncc3)cc21 (library stock concentration (final ~1000-fold dilution): 10 mM),NF-kB SEAP reporter activity,[3]; agonist: LPS (TLR4) 0.1 ug/mL,0.494
same,NF-kB SEAP reporter activity,[3]; [4],2.47
same,NF-kB SEAP reporter activity,[3]; [5],0.576
same,NF-kB SEAP reporter activity,[3]; [6],0.606
O=C1NCCc2[nH]c(-c3ccncc3)cc21,NF-kB SEAP reporter activity,[1]; [9],2.03
same,NF-kB SEAP reporter activity,[1]; [10],1.23
O=C(/C=C/c1ccc(O)c(O)c1)c1ccc(O)cc1O (library stock concentration (final ~1000-fold dilution): 10 mM),NF-kB SEAP reporter activity,[2]; agonist: LPS (TLR4) 0.1 ug/mL,0.414
same,NF-kB SEAP reporter activity,[2]; [4],0.263
same,NF-kB SEAP reporter activity,[2]; [5],0.16
same,NF-kB SEAP reporter activity,[2]; [6],0.145
O=C(/C=C/c1ccc(O)c(O)c1)c1ccc(O)cc1O,NF-kB SEAP reporter activity,[1]; [7],0.628
same,NF-kB SEAP reporter activity,[1]; [8],0.736
COc1ccccc1N1CCN(CCCNc2cc(=O)n(C)c(=O)n2C)CC1.Cl (library stock concentration (final ~1000-fold dilution): 10 mM),NF-kB SEAP reporter activity,[2]; agonist: LPS (TLR4) 0.1 ug/mL,1.02
same,NF-kB SEAP reporter activity,[2]; [4],0.978
same,NF-kB SEAP reporter activity,[2]; [5],1.06
same,NF-kB SEAP reporter activity,[2]; [6],1.17
COc1ccccc1N1CCN(CCCNc2cc(=O)n(C)c(=O)n2C)CC1.Cl,NF-kB SEAP reporter activity,[1]; [7],1.18
same,NF-kB SEAP reporter activity,[1]; [8],0.935
O=C(CCCCCCC(=O)Nc1ccccc1)NO (library stock concentration (final ~1000-fold dilution): 10 mM),NF-kB SEAP reporter activity,[3]; agonist: LPS (TLR4) 0.1 ug/mL,6.47
same,NF-kB SEAP reporter activity,[3]; [4],2.34
same,NF-kB SEAP reporter activity,[3]; [5],0.808
same,NF-kB SEAP reporter activity,[3]; [6],1.86
O=C(CCCCCCC(=O)Nc1ccccc1)NO,NF-kB SEAP reporter activity,[1]; [9],2.38
same,NF-kB SEAP reporter activity,[1]; [10],2.6
CN1C(=O)NC(Cc2c[nH]c3c(Cl)cccc23)C1=O (centres undefined) (library stock concentration (final ~1000-fold dilution): 10 mM),NF-kB SEAP reporter activity,[2]; agonist: LPS (TLR4) 0.1 ug/mL,1.33
same,NF-kB SEAP reporter activity,[2]; [4],0.951
same,NF-kB SEAP reporter activity,[2]; [5],0.977
same,NF-kB SEAP reporter activity,[2]; [6],1.31
CN1C(=O)NC(Cc2c[nH]c3c(Cl)cccc23)C1=O (centres undefined),NF-kB SEAP reporter activity,[1]; [7],0.354
same,NF-kB SEAP reporter activity,[1]; [8],0.685
Cc1cc(C(=O)NC(C)(C)C)cc(C#Cc2ccc3c4c(oc3c2)C(C)(C)c2cc(NS(C)(=O)=O)ccc2C4=O)n1,NF-kB SEAP reporter activity,[1]; [7],1
same,NF-kB SEAP reporter activity,[1]; [8],0.918
Cc1cc(C(=O)NC(C)(C)C)cc(C#Cc2ccc3c4c(oc3c2)C(C)(C)c2cc(NS(C)(=O)=O)ccc2C4=O)n1 (library stock concentration (final ~1000-fold dilution): 10 mM),NF-kB SEAP reporter activity,[2]; agonist: LPS (TLR4) 0.1 ug/mL,1.17
same,NF-kB SEAP reporter activity,[2]; [4],0.858
same,NF-kB SEAP reporter activity,[2]; [5],0.258
same,NF-kB SEAP reporter activity,[2]; [6],0.256
COc1ccc2c(c1)c(C1=C(c3c[nH]c4ccccc34)C(=O)NC1=O)cn2CCCN(C)C (library stock concentration (final ~1000-fold dilution): 10 mM),NF-kB SEAP reporter activity,[3]; agonist: LPS (TLR4) 0.1 ug/mL,1.23
same,NF-kB SEAP reporter activity,[3]; [4],0.346
same,NF-kB SEAP reporter activity,[3]; [5],1.25
same,NF-kB SEAP reporter activity,[3]; [6],1.82
COc1ccc2c(c1)c(C1=C(c3c[nH]c4ccccc34)C(=O)NC1=O)cn2CCCN(C)C,NF-kB SEAP reporter activity,[1]; [9],2.44
same,NF-kB SEAP reporter activity,[1]; [10],1.71
